About 16,000 (7.3%) of roughly 220,000 compounds were called active. Inconclusive results, whose numbers are uncertain, are shown with a selection of clear calls. Calls follow the shape of the dose curve; as a rule, active = well fitted inhibition curve with a large enough effect (not every such curve was filed as active); inconclusive = small, poorly fitted or top-dose-only effect, or another doubt; inactive = no such curve, though single readings can be large or run the other way. Potencies of inconclusive entries are left out as doubtful fits.
The molecules below were run against Aldehyde dehydrogenase 1A1 (Homo sapiens) (UniProt P00352) (assay: qHTS Assay for Inhibitors of Aldehyde Dehydrogenase 1 (ALDH1A1)). Conditions: Purified ALDH1A1, NADH fluorescence, propionaldehyde substrate; series mostly up to 75.3 µM.
Potency is read from the fitted curve at half-maximal effect; tags tell the direction and shape of the fitted curve.

Sequence of UniProt P00352 (P00352 whole entry, looked up): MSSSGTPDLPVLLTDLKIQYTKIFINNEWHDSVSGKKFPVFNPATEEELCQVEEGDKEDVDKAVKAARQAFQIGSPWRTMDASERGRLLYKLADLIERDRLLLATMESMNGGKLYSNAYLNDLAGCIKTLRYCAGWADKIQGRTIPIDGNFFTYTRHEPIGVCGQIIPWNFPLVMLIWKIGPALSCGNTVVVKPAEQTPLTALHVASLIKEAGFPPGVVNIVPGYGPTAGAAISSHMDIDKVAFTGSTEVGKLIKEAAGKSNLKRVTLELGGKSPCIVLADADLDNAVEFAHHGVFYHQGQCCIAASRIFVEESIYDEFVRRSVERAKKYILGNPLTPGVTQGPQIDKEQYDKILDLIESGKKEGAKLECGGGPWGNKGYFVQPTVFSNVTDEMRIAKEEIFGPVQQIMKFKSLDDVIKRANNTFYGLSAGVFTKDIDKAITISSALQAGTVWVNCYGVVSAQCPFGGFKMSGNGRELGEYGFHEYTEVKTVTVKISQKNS

Compound | Potency
O=C(CO/N=C/c1ccccc1OC(F)F)NC1CCCCC1 | inactive
COc1ccc(OC)c(-c2nnc(NC(=O)C(C)Sc3nncn3C)s2)c1 (centres undefined) | inconclusive [inhibitor, partial curve]
NC(=O)c1cc(-c2ccccc2)nc(N2CCCCCC2)n1 | inconclusive [inhibitor, single point]
Cc1cccc(N2CC(C)Cn3c2nc2c3c(=O)n(CC(=O)OCc3ccccc3)c(=O)n2C)c1 (centres undefined) | inactive
O=C(c1ccco1)N1CCN(c2nc(-c3ccc(F)cc3)cs2)CC1 | inconclusive [inhibitor, partial curve]
Cc1cc(C)c(NC(=O)C2C3/C=C\CCCCC32)c(C)c1 (centres undefined) | inactive
COc1ccccc1/C=N/NC(=O)c1ccc(N(C)S(=O)(=O)c2ccccc2)cc1 | inactive
COc1ccc(NC(=S)Nc2ccc3snnc3c2)cc1 | inconclusive [inhibitor, single point]
CN(C)c1ccnc2sc(C(=O)c3ccccc3)c(N)c12 | inconclusive [inhibitor, partial curve]
Cc1sc2ncn(CC(=O)Nc3c(F)cccc3F)c(=O)c2c1S(=O)(=O)N1CCC(C)CC1 | inactive
Cc1ccc(N2C(=O)C(CC(=O)Nc3cccc(F)c3)N(CCc3ccncc3)C2=O)cc1 (centres undefined) | inconclusive [inhibitor, partial curve]
CC(C)n1c2ccccc2c2nnc(SCC(=O)OCN3C(=O)c4ccccc4C3=O)nc21 | inactive
Oc1c(C=NCc2ccncc2)sc2ccccc12 | inconclusive [inhibitor, partial curve]
COCCn1c(=O)[nH]c2cc(C(=O)NCCN3CCN(c4ccccc4)CC3)ccc2c1=O | inconclusive [inhibitor, single point]
CCOC(=O)C1(Cc2ccccc2)CCN(Cc2ccc3cc(NC(C)=O)ccc3n2)CC1 | inactive
O=C(O)C1CCCCC1C(=O)Nc1cc(Cl)ccc1Cl (centres undefined) | inactive
O=C(CN(C(=O)c1ccc(Cl)cc1)C1CCCCC1)Nc1ccc(Cl)c([N+](=O)[O-])c1 | inconclusive [inhibitor, partial curve]
Fc1ccc(CNC(=S)NC2CCCCCC2)cc1 | inconclusive [inhibitor, single point]
O=C(CSc1nc2ccc([N+](=O)[O-])cc2[nH]1)NC1CCCCCC1 | inconclusive [inhibitor, single point]
Cc1cc(NC(=O)/C=C/c2ccc(F)cc2)n(-c2nc3ccccc3[nH]2)n1 | inconclusive [inhibitor, single point]
O=C(Nc1cccc(NC(=O)c2cccs2)c1)c1cccnc1 | inactive
Cc1cccc(C(=O)N2CCC(=O)N(C(COCc3ccc(Cl)cc3)Cc3ccccc3)CC2)c1 (centres undefined) | inconclusive [inhibitor, single point]
COc1ccc(C(=O)N(c2ccc(OC)cc2)S(=O)(=O)c2cccs2)cc1 | active: 5.01 µM
COc1cc(OC)cc(-c2ncc3ccccn23)c1 | inconclusive [inhibitor, partial curve]
NC(=O)CSc1nnc(-c2ccc([N+](=O)[O-])cc2)o1 | inactive

Compound | Potency
COc1ccc(CCn2c(=O)[nH]c3cc(C(=O)N4CCN(c5ccccn5)CC4)ccc3c2=O)cc1OC | inactive
N=c1c2c(ncn1Cc1ccco1)Oc1ccc3ccccc3c1C2c1ccccc1 (centres undefined) | inactive
COc1nccnc1NS(=O)(=O)c1ccc(N=Cc2c(C)[nH]n(-c3ccccc3)c2=O)cc1 | inactive
Cn1c(-c2ccccc2)c(CCO)c2ccccc21 | inconclusive [inhibitor, partial curve]
COC(=O)C1C(=O)c2c([nH]c(C(=O)OC3CCCCCC3)c2C)CC1C (centres undefined) | inconclusive [inhibitor, full curve]
Cc1ccc(Nc2nc(N)nc(CN3CCN(Cc4ccc5c(c4)OCO5)CC3)n2)c(C)c1 | inconclusive [inhibitor, single point]
COc1cc(/C=C2\SC(=N)N(c3ccc(F)cc3)C2=O)ccc1O | inactive
COc1ccc2[nH]c(=O)c(CNc3cccc(C)c3)cc2c1 | inconclusive [inhibitor, single point]
O=C(COC(=O)c1ccc(Cl)cc1O)NC(=O)C1CCCCC1 | inconclusive [inhibitor, partial curve]
CCOC(=O)Cn1nnnc1CN(Cc1ccccc1)Cc1cc2cc(CC)ccc2[nH]c1=O | inconclusive [inhibitor, partial curve]
S=c1[nH]cnc2sc(-c3ccccc3)cc12 | inactive
FC(F)(F)c1cccc(N2CCN(CC3CC=CCC3)CC2)c1 (centres undefined) | inactive
CCCCC(c1nnnn1CC1CCCO1)N1CCN(c2nc3ccccc3s2)CC1 (centres undefined) | inconclusive [inhibitor, single point]
COc1cc(C)c2c(=O)cc(-c3ccccc3)oc2c1 | inactive
Cc1ccc(C(=O)Nc2nc3ccccc3s2)s1 | inconclusive [inhibitor, partial curve]
Clc1ccc(C(c2nnnn2C2CCCC2)N2CCSCC2)cc1 (centres undefined) | inactive
O=C(NCCc1ccccn1)c1cc(-c2cccc3ccccc23)nc2ccccc12 | inactive
CCCn1nc2cc(C(=O)NCc3ccc(C)cc3)ccc2c1OC | inconclusive [inhibitor, single point]
CC(C)n1c(=S)[nH]c2scc(-c3cccs3)c2c1=O | active: 12.6 µM
COC(=O)CN1CC(=O)N(c2ccccc2)C1=S | inactive
CC1CCCN(CCCOc2ccc(Br)cc2Cl)C1 (centres undefined) | inactive
CCc1ccc(C(=O)c2cnc3ccc(OC)cc3c2N2CCN(CC)CC2)cc1 | active: 17.8 µM
CC1CN(c2nc3c(c(=O)n(Cc4ccc(Cl)c(Cl)c4)c(=O)n3C)n2C)CC(C)O1 (centres undefined) | inconclusive [inhibitor, single point]
O=C(NC1CCN(Cc2ccccc2)C1)c1ccc(Cc2nc3ccccc3[nH]2)cc1 (centres undefined) | inactive

— PubChem BioAssay AID1030 (National Center for Advancing Translational Sciences (NCATS), 2008)
